Where “and” joins values, the source holds several entries; their conditions need not be identical. Identical values can stand only once. Among all 360,000 compounds or so, about 11,000 (3.1%) were called active. The shares of active, inactive and inconclusive entries below differ from those in the screen. Calls follow the shape of the dose curve; as a rule, active = well fitted inhibition curve with a large enough effect; inconclusive = small, poorly fitted or top-dose-only effect; inactive = no such curve, though single readings can be large or run the other way. No potency is given beside an inconclusive call; the fits are too rough.
The compounds below were run against Schistosoma mansoni thioredoxin glutathione reductase (TGR) (UniProt Q962Y6) (assay: qHTS Assay for the Inhibitors of Schistosoma Mansoni Peroxiredoxins). Conditions: purified TGR, DTNB reduction, TNB absorbance 405 nm; series mostly up to 114 µM.
Method in brief: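 Kinetic colorimetric format: TGR-catalysed, NADPH-driven DTNB reduction monitored via TNB absorbance. Enzyme dispensed at 20 nM; compound exposure 15 min at room temperature before reaction start.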
Also: nearly all actives have a fitted effect of over 60% in size.
Potency is read from the fitted curve at half-maximal effect; tags tell the direction and shape of the fitted curve.

Structure (SMILES) | Potency
CC(c1ccco1)N(C(=O)CSc1ccc(Br)cc1)c1ccccn1 (stereo unspecified) | inconclusive [inhibitor, partial curve]
CN(C)S(=O)(=O)c1ccc2c(c1)/C(=C/c1cc3c([nH]1)CCCC3)C(=O)N2 | active: 50.1 µM
Cc1ccc2nc(-c3cc(NC(=O)COc4ccc(C)c(C)c4)ccc3Cl)oc2c1 | inactive
Cc1nc(N2CCCCC2)sc1C(=O)c1cccc([N+](=O)[O-])c1 | inactive
CC(C)(C)[C@H]1C=C(C(=O)NCc2nc3ccccc3[nH]2)O[C@@H](OCCCCO)C1 | inactive
CC(c1ccncn1)N(C)Cc1nc(Cc2ccccc2F)no1 (stereo unspecified) | inconclusive [inhibitor, partial curve]
Cc1ccc(NC(=O)COC(=O)Cn2cnc3ccccc32)cc1S(=O)(=O)N(C)C | inconclusive [inhibitor, partial curve]
O=C(O)CCc1ccc(-c2ccc(Br)cc2)n1-c1ccc(O)cc1 | active: 28.2 µM
N#CC(C#N)=C1c2cc(S(N)(=O)=O)ccc2-c2ccc(S(N)(=O)=O)cc21 | active: 4.47 µM
CC(C)c1ccc(OCC(=O)NCCO)cc1 | inactive
CC(C)C(NC(=O)/C(=C\c1ccco1)NC(=O)c1ccco1)C(=O)O (stereo unspecified) | inconclusive [inhibitor, partial curve]
O=C(CCn1nnnc1CN1CCOCC1)N1CCC(c2ccccc2F)C1 (stereo unspecified) | active: 25.1 µM
O=C1OCC2=C1C(c1ccccc1)CC(=O)N2c1ccccc1 (stereo unspecified) | inactive
C#CCOCCOCCOCCNc1nc(N2CCN(C(=O)[C@H]([C@@H](C)O)n3cc(CCCCN)nn3)CC2)nc(N2CCN(C(=O)[C@H](CCCCN)n3cc(CCC(=O)O)nn3)CC2)n1 | inconclusive [inhibitor, partial curve]
COc1ccc(CC(=O)Nc2sc3c(c2C#N)CC(C)(C)NC3(C)C)cc1OC | active: 89.1 µM
COc1ccc(CN2C(=O)CC(=O)NC2=O)cc1 | inconclusive [inhibitor, full curve, poor fit]
O=C(CCCCl)NC(=S)Nc1cc(C(F)(F)F)ccc1N1CCOCC1 | inconclusive [inhibitor, partial curve]
N#CC(C#N)=Cc1ccc(-c2ccccc2)o1 | inconclusive [inhibitor, partial curve]
CN(c1ccc(F)cc1)S(=O)(=O)c1ccc(Cl)c(C(=O)Nc2ccncc2)c1 | inactive
C#CCSc1nncn1C(=O)/C=C/c1ccccc1 | active: 70.8 µM
Cc1c(C(=O)N2CCOCC2)oc2c1-c1nn(CC(=O)NCc3cccc(F)c3)cc1CC2 | inconclusive [inhibitor, partial curve]
COc1ccc(C2CC(=O)C(C=NCCN3CCNCC3)=C(O)C2)cc1OC (stereo unspecified) | inconclusive [inhibitor, full curve]
Nc1nc(-n2cnnc2)nn1-c1ccccc1 | inactive

Structure (SMILES) | Potency
Cc1ccc2nsnc2c1NC(=O)CCl | active: 44.7 µM
O=C(NC1=NCCS1)c1ccccc1OCc1ccc(F)cc1 | inconclusive [inhibitor, single point]
COc1ccc(-c2oc3ncn4nc(COc5cccc(C)c5C)nc4c3c2-c2ccc(OC)cc2)cc1 | inactive
O=C(CC1SC(N2CCOCC2)=NC1=O)Nc1ccc(Cl)cc1 (stereo unspecified) | inconclusive [inhibitor, partial curve]
C=CCn1c(SCC(=O)NC2CCCC2)nnc1-c1cccnc1 | inconclusive [inhibitor, partial curve]
O=c1cc(-c2cccc(Cl)c2)oc2cccc(O)c12 | inconclusive [inhibitor, partial curve]
CCc1cc(SC#N)cc(CC)c1NC(=O)CCl | inconclusive [inhibitor, full curve]
Cc1cccc(CS(=O)(=O)c2ncc(Cl)c(C(=O)Nc3nnc(C(C)C)s3)n2)c1 | active: 35.5 µM and active: 39.8 µM
CCOC(=O)C1CCN(C(=O)Cc2cccs2)CC1 | inconclusive [inhibitor, single point]
COc1ccc(NC2CCN(C3CC(=O)N(c4ccc(F)c(Cl)c4)C3=O)CC2)cc1 (stereo unspecified) | active: 11.2 µM
O=C(NC(=S)Nc1cccc(Cl)c1Cl)C1CC1 | inconclusive [inhibitor, partial curve]
Cc1ccc2[nH]c(=O)c3cc(C(=O)N4CCN(C(=O)c5ccco5)CC4)sc3c2c1 | inconclusive [inhibitor, partial curve]
O=C(Nc1c(C(=O)N2CCN(c3ccccc3F)CC2)oc2ccccc12)c1cccc(F)c1 | inactive
CCOC(=O)C1CCN(C(=O)COC(=O)c2ccc([N+](=O)[O-])o2)CC1 | inconclusive [inhibitor, partial curve]
O=C(c1ccc(F)cc1)c1cn(Cc2ccccc2)c2cc3c(cc2c1=O)OCO3 | inactive
CCN1CCN(C(=O)COc2ccc(S(=O)(=O)N(C)Cc3ccccc3)cc2)CC1 | inconclusive [inhibitor, single point]
Cc1ccc(-n2cc(-c3ccccc3)c3c(=O)[nH]cnc32)cc1 | inactive
COc1ccc(/C=N/N=C2/NC(=O)CC(C(=O)O)S2)cc1 (stereo unspecified) | inactive
COC(=O)c1cccc(Cn2c(Cl)c(/C=N/NC(=O)c3ccccc3Cl)sc2=O)c1 | inconclusive [inhibitor, partial curve]
COc1cc([N+](=O)[O-])c(OC)cc1SCc1n[nH]c(=S)n1-c1ccc(C)cc1 | inactive
COc1ccc2c(c1)CCc1c(C(=O)N3CC4(C)CC3CC(C)(C)C4)noc1-2 (stereo unspecified) | inconclusive [inhibitor, partial curve]
CC/C(=C\c1oc2cc3ccccc3cc2[n+]1CC)Nc1ccccc1 | active: 20 µM
CCOC(=O)c1sc(NC(=O)/C=C/c2cnn(C)c2C)c(C(=O)OC(C)C)c1C | inconclusive [inhibitor, full curve, poor fit]

Source: PubChem BioAssay AID485364 (National Center for Advancing Translational Sciences (NCATS), 2010)
